Source: the supplement of paper PMC8047034
Where a name gives a salt, the structure may show the parent alone. Some of the results follow. Repeats are few or missing, and single values can be far off.

Key:
OVCAR4 = assay: log2 surviving fraction (library drug vs vehicle, or drug + carboplatin vs carboplatin alone; relative to plate median); ovarian cancer lines: OVCAR4 is platinum-sensitive and Ov4Carbo platinum-resistant; higher = more cell survival; settings: library drug concentration 10 µM, 7 days
Ov4Carbo = assay: as above; settings: library drug concentration 10 µM, 7 days

CCCCOc1ccc(CC(=O)NO)cc1 [Bufexamac]
log2 surviving fraction (OVCAR4; carboplatin co-treatment 0 µM): -0.384
log2 surviving fraction (OVCAR4; carboplatin co-treatment 5 µM): -0.954
log2 surviving fraction (Ov4Carbo; carboplatin co-treatment 0 µM): -1.23
log2 surviving fraction (Ov4Carbo; carboplatin co-treatment 5 µM): -0.516

O=NO [Sodium nitrite]
log2 surviving fraction (OVCAR4; carboplatin co-treatment 0 µM): -0.701
log2 surviving fraction (OVCAR4; carboplatin co-treatment 5 µM): -0.258
log2 surviving fraction (Ov4Carbo; carboplatin co-treatment 0 µM): -0.606
log2 surviving fraction (Ov4Carbo; carboplatin co-treatment 5 µM): -1.11

CS(=O)(=O)OCCCCOS(C)(=O)=O [Busulfan (Myleran, Busulfex)]
log2 surviving fraction (OVCAR4; carboplatin co-treatment 0 µM): 0.617
log2 surviving fraction (OVCAR4; carboplatin co-treatment 5 µM): 0.618
log2 surviving fraction (Ov4Carbo; carboplatin co-treatment 0 µM): 0.676
log2 surviving fraction (Ov4Carbo; carboplatin co-treatment 5 µM): -0.00112

CC(=O)O[C@H]1C[C@@H]2CC[C@@H]3[C@H](CC[C@@]4(C)[C@H]3C[C@H]([N+]3(C)CCCCC3)[C@@H]4OC(C)=O)[C@@]2(C)C[C@@H]1N1CCCCC1 [Vecuronium Bromide]
log2 surviving fraction (OVCAR4; carboplatin co-treatment 0 µM): 0.446
log2 surviving fraction (OVCAR4; carboplatin co-treatment 5 µM): -1.35
log2 surviving fraction (Ov4Carbo; carboplatin co-treatment 0 µM): 0.442
log2 surviving fraction (Ov4Carbo; carboplatin co-treatment 5 µM): 1.24

CN1CCOC(c2ccccc2)c2ccccc2C1 (stereo not drawn) [Nefopam HCl]
log2 surviving fraction (OVCAR4; carboplatin co-treatment 0 µM): -0.576
log2 surviving fraction (OVCAR4; carboplatin co-treatment 5 µM): -0.818
log2 surviving fraction (Ov4Carbo; carboplatin co-treatment 0 µM): -0.0292
log2 surviving fraction (Ov4Carbo; carboplatin co-treatment 5 µM): -1.88

CC(=O)OCC(=O)NCCCOc1cccc(CN2CCCCC2)c1 [Roxatidine acetate HCl]
log2 surviving fraction (OVCAR4; carboplatin co-treatment 0 µM): 0.98
log2 surviving fraction (OVCAR4; carboplatin co-treatment 5 µM): 0.885
log2 surviving fraction (Ov4Carbo; carboplatin co-treatment 0 µM): 0.867
log2 surviving fraction (Ov4Carbo; carboplatin co-treatment 5 µM): -1.96

O=C1CN2Cc3c(ccc(Cl)c3Cl)N=C2N1 [Anagrelide HCl]
log2 surviving fraction (OVCAR4; carboplatin co-treatment 0 µM): 0.43
log2 surviving fraction (OVCAR4; carboplatin co-treatment 5 µM): -0.0662
log2 surviving fraction (Ov4Carbo; carboplatin co-treatment 0 µM): -0.532
log2 surviving fraction (Ov4Carbo; carboplatin co-treatment 5 µM): -0.557

Nc1nc2n[nH]nc2c(=O)[nH]1 [Azaguanine-8]
log2 surviving fraction (OVCAR4; carboplatin co-treatment 0 µM): -2.78
log2 surviving fraction (OVCAR4; carboplatin co-treatment 5 µM): -2.67
log2 surviving fraction (Ov4Carbo; carboplatin co-treatment 0 µM): -3.18
log2 surviving fraction (Ov4Carbo; carboplatin co-treatment 5 µM): -4.13

CCOC(=O)[C@H](CCc1ccccc1)N[C@@H](C)C(=O)N1C(=O)N(C)C[C@H]1C(=O)O [Imidapril (Tanatril)]
log2 surviving fraction (OVCAR4; carboplatin co-treatment 0 µM): -0.494
log2 surviving fraction (OVCAR4; carboplatin co-treatment 5 µM): 0.807
log2 surviving fraction (Ov4Carbo; carboplatin co-treatment 0 µM): 0.276
log2 surviving fraction (Ov4Carbo; carboplatin co-treatment 5 µM): 0.353

COc1c(C)c2c(c(O)c1C/C=C(\C)CCC(=O)O)C(=O)OC2 [Mycophenolic (Mycophenolate)]
log2 surviving fraction (OVCAR4; carboplatin co-treatment 0 µM): -4.88
log2 surviving fraction (OVCAR4; carboplatin co-treatment 5 µM): -4.31
log2 surviving fraction (Ov4Carbo; carboplatin co-treatment 0 µM): -5.33
log2 surviving fraction (Ov4Carbo; carboplatin co-treatment 5 µM): -5.17

C[C@H](CCC(=O)O)[C@H]1CC[C@H]2[C@@H]3[C@@H](O)C[C@@H]4C[C@H](O)CC[C@]4(C)[C@H]3CC[C@]12C [Ursodiol (Actigal Urso)]
log2 surviving fraction (OVCAR4; carboplatin co-treatment 0 µM): 0.81
log2 surviving fraction (OVCAR4; carboplatin co-treatment 5 µM): 0.673
log2 surviving fraction (Ov4Carbo; carboplatin co-treatment 0 µM): -0.00732
log2 surviving fraction (Ov4Carbo; carboplatin co-treatment 5 µM): 0.00409

NC(=O)N1c2ccccc2C=Cc2ccccc21 [Carbamazepine (Carbatrol)]
log2 surviving fraction (OVCAR4; carboplatin co-treatment 0 µM): 0.972
log2 surviving fraction (OVCAR4; carboplatin co-treatment 5 µM): 0.384
log2 surviving fraction (Ov4Carbo; carboplatin co-treatment 0 µM): 0.219
log2 surviving fraction (Ov4Carbo; carboplatin co-treatment 5 µM): 0.466
